In all, about 310,000 compounds went through this assay and about 2,200 (0.71%) showed an effect of 50% or more. Effects have a minus sign here. The list shows a part of the results.
These compounds were tested against human ether-à-go-go-related gene (hERG) potassium channel (human, UniProt Q12809) (assay: primary screen, population patch clamp on CHO cells stably expressing hERG).
human ether-à-go-go-related gene (hERG) potassium channel, sequence (Q12809 whole entry, looked up): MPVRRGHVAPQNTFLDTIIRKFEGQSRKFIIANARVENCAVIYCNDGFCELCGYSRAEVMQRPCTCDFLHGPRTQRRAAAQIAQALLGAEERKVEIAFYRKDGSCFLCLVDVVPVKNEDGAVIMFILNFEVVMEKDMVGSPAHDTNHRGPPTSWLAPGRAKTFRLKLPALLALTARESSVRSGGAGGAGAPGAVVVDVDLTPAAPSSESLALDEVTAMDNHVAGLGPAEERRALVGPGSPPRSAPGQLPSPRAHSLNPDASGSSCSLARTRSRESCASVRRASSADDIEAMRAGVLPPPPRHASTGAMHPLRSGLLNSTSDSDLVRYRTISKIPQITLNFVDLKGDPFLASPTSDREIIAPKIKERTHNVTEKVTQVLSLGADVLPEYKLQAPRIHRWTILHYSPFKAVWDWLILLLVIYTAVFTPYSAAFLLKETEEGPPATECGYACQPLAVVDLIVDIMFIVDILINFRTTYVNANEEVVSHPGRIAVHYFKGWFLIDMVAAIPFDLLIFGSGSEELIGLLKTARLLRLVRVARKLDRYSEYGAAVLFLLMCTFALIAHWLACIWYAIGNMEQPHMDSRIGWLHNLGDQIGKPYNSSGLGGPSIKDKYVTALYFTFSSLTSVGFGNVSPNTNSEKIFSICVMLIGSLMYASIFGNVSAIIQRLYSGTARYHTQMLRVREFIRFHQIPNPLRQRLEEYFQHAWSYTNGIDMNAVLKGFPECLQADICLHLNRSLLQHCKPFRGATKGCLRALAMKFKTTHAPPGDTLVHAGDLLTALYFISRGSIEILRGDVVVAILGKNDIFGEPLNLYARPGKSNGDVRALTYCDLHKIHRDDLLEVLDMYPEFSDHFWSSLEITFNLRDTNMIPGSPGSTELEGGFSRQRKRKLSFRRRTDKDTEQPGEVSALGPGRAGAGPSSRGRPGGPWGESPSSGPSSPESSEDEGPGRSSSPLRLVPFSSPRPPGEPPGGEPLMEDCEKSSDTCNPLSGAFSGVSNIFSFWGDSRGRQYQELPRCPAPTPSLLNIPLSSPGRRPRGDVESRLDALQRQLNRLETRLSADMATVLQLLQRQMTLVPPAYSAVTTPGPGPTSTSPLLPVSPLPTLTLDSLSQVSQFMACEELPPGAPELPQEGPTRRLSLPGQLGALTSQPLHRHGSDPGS

First: Cc1oc(C(C)(C)C)cc1C(=O)NCc1ccc2c(c1)OCO2
Second: CCN(CC(=O)Nc1ccc2c(c1)OCCO2)C(=O)c1cc(Cl)nc2ccccc12
The “hERG current change (%, negative = inhibition) at 1uM” value of the first is higher: 14.1% for the first, 1.02% for the second.

Going from `COc1ccc(Cl)cc1/C=C(\C#N)C(N)=O` to `COc1ccc(CCN(C)C(=S)NC(=O)c2ccc(F)cc2Cl)cc1OC`, the “hERG current change (%, negative = inhibition) at 1uM” value falls from 20% to 14.8%.

Going from `Cc1ccc(S(=O)(=O)N2CCOCC2)cc1NC(=O)COc1ccc(C(=O)c2ccccc2)cc1` to `O=C(COC(=O)Cc1ccccc1)Nc1cc(S(=O)(=O)N2CCCCC2)ccc1Cl`, the “hERG current change (%, negative = inhibition) at 1uM” value falls from -15% to -17.8%.

First: Cc1ccc(-c2[nH]nc3c2C(C)C(C#N)=C(N)O3)cc1 (stereo not drawn)
Second: Cc1ccc(-c2nc(N)n(C(=O)c3cccnc3)n2)cc1
The “hERG current change (%, negative = inhibition) at 1uM” value of the first is higher: 15.4% for the first, 9.27% for the second.

Compared with `CC(=O)c1ccc(N2CCN(S(=O)(=O)c3c(C)[nH]c(=O)[nH]c3=O)CC2)cc1`, `CCCN1Cc2cccc(C(=O)N3CCN(c4ccc(F)cc4)CC3)c2C1=O` is lower in “hERG current change (%, negative = inhibition) at 1uM” value: 9.72% for the first, 3.75% for the second.

Going from `CCCOc1ccc(C2=CSC3=NCCN23)cc1Cl` to `Cc1ccc(NC(=O)CCOc2ccccc2C)cc1F`, the “hERG current change (%, negative = inhibition) at 1uM” value rises from -23.5% to 13.3%.

Compared with `O=C(c1ccco1)N1N=C(c2cccs2)CC1c1ccc(F)cc1` (stereo not drawn), `O=C(Nc1cn(-c2ccccc2)nc1-c1cccs1)c1ccco1` is lower in “hERG current change (%, negative = inhibition) at 1uM” value: 0.0766% for the first, -0.954% for the second.

First: O=C(/C=C/c1ccccc1)NC1CC2CCC1C2 (stereo not drawn)
Second: O=C(Nc1cccc2ncccc12)C12CC3CC(CC(C3)C1)C2
The “hERG current change (%, negative = inhibition) at 1uM” value of the first is higher: 8.7% for the first, 3.5% for the second.

Compared with `Cc1c(NC(=O)c2ccccc2F)c(=O)n(-c2ccccc2)n1C`, `Cc1c(NC(=O)c2cc3ccccc3oc2=O)c(=O)n(-c2ccccc2)n1C` is lower in “hERG current change (%, negative = inhibition) at 1uM” value: 12.2% for the first, -4.35% for the second.

First: COc1cccc(CC(=O)NN2C(=O)NC3(CCCCC3)C2=O)c1
Second: COc1cccc(N2C(=O)C3CCCN3C2c2ccc(F)cc2)c1 (stereo not drawn)
The “hERG current change (%, negative = inhibition) at 1uM” value of the first is higher: 10.3% for the first, 0.387% for the second.

First: Cc1ccccc1NS(=O)(=O)c1ccc(NC(=O)c2nc3ncccn3n2)cc1
Second: Cc1ccc(NS(=O)(=O)c2cccc(C(=O)N/N=C/c3c(C)nn(-c4ccccc4)c3N3CCCC3)c2)c(C)c1
The “hERG current change (%, negative = inhibition) at 1uM” value of the first is lower: 7.01% for the first, 7.65% for the second.

Going from `CC(=O)NC1(C(F)(F)F)C(=O)NC(C)=C1C#N` (stereo not drawn) to `COCCN1C(=O)N[C@@H](c2cccc(C(F)(F)F)c2)[C@@H](C(=O)OC)[C@H]1C`, the “hERG current change (%, negative = inhibition) at 1uM” value rises from 6.12% to 14.5%.

First: CC(=O)C1=C(O)C(=O)N(C)C1c1ccccc1F (stereo not drawn)
Second: CSc1cc(C)n(-c2ccccc2)c(=S)c1C(C)=O
The “hERG current change (%, negative = inhibition) at 1uM” value of the first is higher: 19.4% for the first, 13.4% for the second.

Compared with `Cc1ccccc1NC(=O)COC(=O)CCc1c[nH]c2ccccc12`, `Cc1ccc(C(=O)Nc2ccccc2C(=O)O)cc1NC(=O)COc1c(C)cccc1C` is higher in “hERG current change (%, negative = inhibition) at 1uM” value: 4.35% for the first, 29.3% for the second.

First: O=[N+]([O-])c1ccc2nc(C(O)C(O)c3nc4ccc([N+](=O)[O-])cc4[nH]3)[nH]c2c1 (stereo not drawn)
Second: CC1=N/C(=C/c2ccc([N+](=O)[O-])cc2)C(=O)N1c1ccc(Cl)cc1Cl
The “hERG current change (%, negative = inhibition) at 1uM” value of the first is lower: 10.7% for the first, 16.3% for the second.

Going from `Nc1nnc(CC(=O)N/N=C/c2cccc(OCCOc3ccccc3)c2)s1` to `O=C(C[n+]1ccccc1)Nc1nc2ccccc2s1.[Cl-]`, the “hERG current change (%, negative = inhibition) at 1uM” value rises from 3.68% to 10.3%.

Compared with `CCn1c(O)c(C=C2N=c3ccccc3=N2)sc1=S`, `CCOC(=O)Cc1nnc(NC(=O)CSc2nnc3c4ccccc4n(C(C)C)c3n2)s1` is lower in “hERG current change (%, negative = inhibition) at 1uM” value: 14.7% for the first, -9.05% for the second.

Going from `S=C(NCc1ccco1)N1CCN(c2nc(-c3ccc(Cl)cc3)cs2)CC1` to `O=C(C1Cc2ccccc2CN1C(=O)c1ccccc1)N1CCN(c2ccccc2)CC1` (stereo not drawn), the “hERG current change (%, negative = inhibition) at 1uM” value rises from 2.76% to 5.16%.

First: CCNC(=O)N1c2ccc(OCC)cc2C(C)=CC1(C)C
Second: CCOc1ccc(-n2cccc2C=O)cc1
The “hERG current change (%, negative = inhibition) at 1uM” value of the first is higher: 2.2% for the first, -0.381% for the second.

Compared with `CCN(C(=O)c1ccc(Cl)cc1[N+](=O)[O-])c1ccccc1C`, `CCC(C)C(NC(=O)c1ccccc1NC(=O)c1ccco1)C(=O)O` (stereo not drawn) is lower in “hERG current change (%, negative = inhibition) at 1uM” value: 5.78% for the first, 4.13% for the second.

Compared with `Cc1ccc(C)c(OCC(=O)Nc2ccc(N3CCOCC3)cc2)c1`, `Cc1ccc(SC(C)C(=O)Nc2ccccc2C(=O)N2CCOCC2)cc1` (stereo not drawn) is higher in “hERG current change (%, negative = inhibition) at 1uM” value: 2.85% for the first, 9.24% for the second.

Going from `CCOC(=O)c1nnn(-c2nonc2N)c1CSc1ccccn1` to `CCOc1ccc(CSC(=N)N)cc1[N+](=O)[O-].Cl`, the “hERG current change (%, negative = inhibition) at 1uM” value falls from 6.99% to -50.3%.

Compared with `COc1ccc(Cn2c(-c3ccc(Br)cc3)c[n+]3ccccc23)cc1.[Br-]`, `Cc1ccc(-c2noc(-c3cc(C(C)(C)C)nn3Cc3ccccc3)n2)cc1` is higher in “hERG current change (%, negative = inhibition) at 1uM” value: 6.43% for the first, 11.9% for the second.

Going from `C/C(=N/O)c1ccc(Oc2cnccn2)cc1` to `c1ccc(-n2nnc3ccccc32)cc1`, the “hERG current change (%, negative = inhibition) at 1uM” value rises from -0.64% to 5.86%.

Compared with `O=c1[nH]c(=O)n([C@H]2C[C@H](O)[C@@H](CO)O2)cc1C(F)(F)F`, `Cn1c(=O)[nH]c(=O)c2c1nc(N1CCCCC1)n2CCSc1ncccn1` is lower in “hERG current change (%, negative = inhibition) at 1uM” value: 18% for the first, 11.4% for the second.

Compared with `COc1ccc(N2CCN(S(=O)(=O)c3ccc4c(c3)CCCC4)CC2)c([N+](=O)[O-])c1`, `CCN1CCCc2cc(CN(CCN3CCOCC3)C(=S)Nc3ccccc3OC)ccc21` is lower in “hERG current change (%, negative = inhibition) at 1uM” value: 11.1% for the first, 3.62% for the second.

Going from `CCC(NC(=O)Nc1nccs1)(C(F)(F)F)C(F)(F)F` to `O=C(COC(=O)c1ccc(Br)o1)Nc1ccc(Br)cc1`, the “hERG current change (%, negative = inhibition) at 1uM” value rises from 3.1% to 11%.

Compared with `CCc1nc2sc3c(c2c(=O)n1N)CCC3`, `CCOc1ccc(C(=O)NCC2CCCO2)cc1OCC` (stereo not drawn) is higher in “hERG current change (%, negative = inhibition) at 1uM” value: 14.6% for the first, 22.7% for the second.

With `O=C(CNC(=O)c1ccco1)N/N=C/c1cc(Br)ccc1O` the “hERG current change (%, negative = inhibition) at 1uM” value was 15.2%.

From paper PMC4336329 (PLoS ONE, 2015)
